# Test results reported in PubChem BioAssay AID504332 (National Center for Advancing Translational Sciences (NCATS), 2011).
# The campaign covered roughly 350,000 compounds. About 31,000 (8.9%) were called active. Inconclusive results, whose numbers are uncertain, are shown with a selection of clear calls. Calls come from the whole dose curve; as a rule, active = well fitted inhibition curve with a large enough effect; inconclusive = small, poorly fitted or top-dose-only effect; inactive = no such curve, though single readings can be large or run the other way. Where the call is inconclusive, the potency comes from a doubtful curve fit.
# Target: Histone-lysine N-methyltransferase EHMT2 (Homo sapiens) (UniProt Q96KQ7)
# Chain of UniProt Q96KQ7 (Q96KQ7 whole entry, looked up): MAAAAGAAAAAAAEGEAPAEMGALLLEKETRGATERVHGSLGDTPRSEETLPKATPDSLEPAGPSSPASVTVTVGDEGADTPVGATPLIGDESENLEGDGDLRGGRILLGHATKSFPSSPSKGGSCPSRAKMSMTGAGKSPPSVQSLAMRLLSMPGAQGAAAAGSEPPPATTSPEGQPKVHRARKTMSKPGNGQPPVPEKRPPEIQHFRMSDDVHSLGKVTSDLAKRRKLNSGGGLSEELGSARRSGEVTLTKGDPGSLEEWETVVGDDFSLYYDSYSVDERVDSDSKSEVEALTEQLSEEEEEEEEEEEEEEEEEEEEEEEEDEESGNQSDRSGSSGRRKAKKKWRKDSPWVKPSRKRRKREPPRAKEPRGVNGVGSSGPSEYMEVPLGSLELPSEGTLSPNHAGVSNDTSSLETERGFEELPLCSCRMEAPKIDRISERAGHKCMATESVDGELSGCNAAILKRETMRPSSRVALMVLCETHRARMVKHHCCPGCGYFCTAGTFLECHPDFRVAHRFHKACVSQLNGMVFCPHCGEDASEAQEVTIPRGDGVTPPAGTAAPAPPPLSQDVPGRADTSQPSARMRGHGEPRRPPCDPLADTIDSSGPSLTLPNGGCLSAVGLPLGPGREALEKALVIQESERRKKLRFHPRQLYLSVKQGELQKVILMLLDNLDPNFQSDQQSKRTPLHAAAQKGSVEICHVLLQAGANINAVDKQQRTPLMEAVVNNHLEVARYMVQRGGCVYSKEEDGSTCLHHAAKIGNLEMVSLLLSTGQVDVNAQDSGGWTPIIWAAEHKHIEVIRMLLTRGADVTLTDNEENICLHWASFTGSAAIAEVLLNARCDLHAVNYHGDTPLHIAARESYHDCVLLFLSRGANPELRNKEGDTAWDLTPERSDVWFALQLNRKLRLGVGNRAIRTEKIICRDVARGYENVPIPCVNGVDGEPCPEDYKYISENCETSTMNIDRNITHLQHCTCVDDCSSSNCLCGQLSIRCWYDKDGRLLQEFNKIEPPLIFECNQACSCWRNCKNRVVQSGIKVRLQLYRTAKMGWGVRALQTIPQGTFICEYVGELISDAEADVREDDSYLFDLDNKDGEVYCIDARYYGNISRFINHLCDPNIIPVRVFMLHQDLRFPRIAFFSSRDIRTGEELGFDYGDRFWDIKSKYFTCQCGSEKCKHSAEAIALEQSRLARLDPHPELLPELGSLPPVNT
# Experiment: qHTS Assay for Inhibitors of Histone Lysine Methyltransferase G9a; note: nearly all actives have a fitted effect of over 75% in size
# Conditions: G9a H3K9 monomethylation, AlphaScreen, 2 h; activity, negative = inhibition: at 59 µM (top of the series) unless noted
# How it was run: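 Readings reflect AlphaScreen signal from monomethyl-H3K9 antibody detection. HMT at 20 nM; substrate b-H3K9 500 nM; cofactor SAM 20 uM; 2 h RT reaction; compounds tested as titrations in qHTS with 15 min preincubation.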
# % is set by controls: 0 for no effect and ±100 for the full control effect; potency is the fitted concentration of half-maximal effect; tags give direction and shape of the fitted curve.
Compound,"activity, negative = inhibition",Potency
O=C(Cc1ccc(F)cc1)N/N=C/c1ccncc1,inactive: 16.1%,
O=[N+]([O-])c1ccccc1NCc1ccccc1Cl,,"inconclusive: 50.1 µM [inhibitor, partial curve]"
CCSC(=S)c1c(C)[nH]n(-c2ccccc2)c1=O,,"inconclusive: 44.7 µM [inhibitor, partial curve]"
CCOc1ccccc1N=NC1C(=O)N(C(N)=S)N=C1C (stereo not given),,active: 50.1 µM
COc1ccc(C(=O)NC2CCN(C(=O)Nc3ccc(F)cc3)CC2)cc1,inactive: 10.1% [at 102 µM],
COc1cc2c(cc1OC)C(C1C(=O)CC(C)(C)CC1=O)N(C(=O)CCl)CC2 (stereo not given),,"inconclusive: 100 µM [inhibitor, single point]"
CN(C)CCCNC(NC(=O)c1cccs1)C(Cl)(Cl)Cl (stereo not given),inactive: -12% [at 102 µM],
CC(C)OCCCN1CN(S(=O)(=O)c2ccc(Cl)cc2)c2nc3ccccc3nc21,,"inconclusive: 28.2 µM [inhibitor, single point]"
COc1ccc(/C=C2\CCc3c2nc2ccccc2c3C(=O)O)cc1OC,,"inconclusive: 50.1 µM [inhibitor, partial curve, poor fit]"
C[N+](C)(C)CCCCCC(=O)/C=N/O,,"inconclusive: 39.8 µM [inhibitor, single point]"
NNc1nc2ccc(F)cc2s1,,"inconclusive: 25.1 µM [inhibitor, single point]"
CN(CCN(C)C(C)(C)C)C(=O)C(c1ccccc1)c1ccccc1,,"inconclusive: 56.2 µM [inhibitor, partial curve, poor fit]"
Cc1c(-c2ccccc2)nc(N)c(C#N)c1-c1ccco1,inconclusive: -68.9% [inhibitor],
CC(C)(C)C1CCc2c(sc(NC(=O)c3cc(-c4ccc(F)cc4)on3)c2C#N)C1 (stereo not given),,"inconclusive: 25.1 µM [inhibitor, partial curve, poor fit]"
C=CCN1C(c2ccc(Br)cc2)=CS/C1=C(/C#N)c1nnc(N2CCOCC2)n1-c1ccccc1,,"inconclusive: 31.6 µM [inhibitor, single point]"
COc1ccc(C(=O)N2CCN(C3CCC(c4ccccc4)CC3)CC2)cc1OC (stereo not given),,active: 3.16 µM
COc1ccccc1NC(=O)CC12CC3CC(CC(Br)(C3)C1)C2,inactive: 43.1% [at 102 µM],
CCN(CC)CC(O)CN1C(=O)NC(C)(C)C1=O (stereo not given),,"inconclusive: 89.1 µM [inhibitor, single point]"
CCCCn1c2ccc(C)cc2c2nnc(SCCN3CCCCC3)nc21,,"inconclusive: 89.1 µM [inhibitor, single point]"
COc1cc2ncnc(NCc3cccc(Cl)c3)c2cc1OC,,active: 39.8 µM
COC(=O)c1sc2ccccc2c1-n1cccc1C(=O)C(=O)Nc1ccc(Cl)cc1,,"inconclusive: 79.4 µM [inhibitor, single point]"
O=C(Nc1nnc(-c2ccccc2SCc2ccccc2F)s1)Nc1ccccc1F,inactive: -23.5%,
Cc1ccnc(Nc2nc(-c3ccc(F)cc3)cs2)c1,,"inconclusive: 5.62 µM [inhibitor, partial curve, poor fit]"

Compound,"activity, negative = inhibition",Potency
COc1ccc(C)cc1NC(=O)Cn1c(=O)oc2cc(S(=O)(=O)N3CCCCCC3)ccc21,,"inconclusive: 31.6 µM [inhibitor, partial curve, poor fit]"
CCc1ccc2occ(CC(=O)Nc3c(C(=O)c4ccc(F)cc4)oc4ccccc34)c2c1,,"inconclusive: 35.5 µM [inhibitor, single point]"
COc1ccc(CNC(=O)CN2CCN(S(=O)(=O)c3cc(Br)ccc3Br)CC2)cc1OC,,active: 50.1 µM
CCc1nn(C(C)C(=O)N2CCN(c3ccc(OC)cc3)CC2)c(=O)c2cc3occc3n12 (stereo not given),,"inconclusive: 50.1 µM [inhibitor, single point]"
Cc1ccc(-n2c(N)c(C(=O)N3CCOCC3)sc2=S)cc1,,"inconclusive: 3.98 µM [inhibitor, partial curve, poor fit]"
CN(C)c1ccc(-c2nc3ccc(Cl)cn3c2Nc2ccc3c(c2)OCCO3)cc1,,"inconclusive: 3.16 µM [inhibitor, single point]"
Cn1cccc1C(=O)N1CCC2(CC1)CN(C(=O)Nc1ccccc1)C2,inactive: -4.48% [at 12.7 µM],
O=C(O)c1cc(NS(=O)(=O)c2ccc(NC3CCCCC3)c([N+](=O)[O-])c2)cc(C(=O)O)c1,,"inconclusive: 56.2 µM [inhibitor, partial curve, poor fit]"
Cn1cnnc1SCCCN1C(=O)c2cccc3cccc(c23)C1=O,,"inconclusive: 70.8 µM [inhibitor, partial curve, poor fit]"
O=c1c2ccc([N+](=O)[O-])cc2ncn1CCOc1ccccc1,,"inconclusive: 2 µM [inhibitor, partial curve, poor fit]"
Cc1cc(NC(=O)c2cc(-c3ccc(OC(C)C)cc3)nc3ccccc23)no1,inactive: -1.49% [at 102 µM],
CCn1c(C)nc2cc(C(=O)NNC(=O)CCC3CCCCC3)ccc21,inactive: 4.43%,
Cc1ccc(NC(=S)NNC(=S)Nc2ccc(C)cc2C)cc1,inactive: -28% [at 102 µM],
Cc1c(C(=O)O)nn(-c2ccccc2)c(=O)c1C#N,,"inconclusive: 89.1 µM [inhibitor, single point]"
Cn1c(=O)c2c(-c3cccc(F)c3)c3c(nc2n(C)c1=O)-c1ccccc1C3O (stereo not given),inactive: -27% [at 12.7 µM],
Cc1n[nH]c(=O)c2c(NC(=O)CSc3ccccc3F)oc(C)c12,,active: 31.6 µM
COc1ccc2nc(NC(=O)Cc3cccs3)sc2c1,,"inconclusive: 63.1 µM [inhibitor, partial curve, poor fit]"
O=C(O)CCN1C(=O)C2C3C=CC(C3)C2C1=O (stereo not given),,"inconclusive: 0.708 µM [inhibitor, full curve, poor fit]"
Cc1ccc(C)c(N2CCN(C3(c4ccccc4)C(=O)c4ccccc4C3=O)CC2)c1,,active: 7.08 µM
CCOCCCNC(=O)Cn1ncc2c([nH]c3ccc(C)cc32)c1=O,inactive: -26.7%,
COC(=O)CSc1nc(N)c2c3c(sc2n1)CCCC3,,"inconclusive: 79.4 µM [inhibitor, single point]"
S=c1[nH]nc(-c2ccc3ccccc3n2)n1-c1cc(Cl)cc(Cl)c1,,"inconclusive: 2.82 µM [inhibitor, full curve, poor fit]"
